Test results taken from publication PMC4336329 (PLoS ONE, 2015).
Out of some 310,000 compounds screened, about 2,200 (0.71%) showed an effect of 50% or more. Effects have a minus sign here. Some of the results follow.

Biological target: human ether-à-go-go-related gene (hERG) potassium channel (human, UniProt Q12809)
Test: primary screen, population patch clamp on CHO cells stably expressing hERG

Chain of human ether-à-go-go-related gene (hERG) potassium channel (Q12809 whole entry, looked up): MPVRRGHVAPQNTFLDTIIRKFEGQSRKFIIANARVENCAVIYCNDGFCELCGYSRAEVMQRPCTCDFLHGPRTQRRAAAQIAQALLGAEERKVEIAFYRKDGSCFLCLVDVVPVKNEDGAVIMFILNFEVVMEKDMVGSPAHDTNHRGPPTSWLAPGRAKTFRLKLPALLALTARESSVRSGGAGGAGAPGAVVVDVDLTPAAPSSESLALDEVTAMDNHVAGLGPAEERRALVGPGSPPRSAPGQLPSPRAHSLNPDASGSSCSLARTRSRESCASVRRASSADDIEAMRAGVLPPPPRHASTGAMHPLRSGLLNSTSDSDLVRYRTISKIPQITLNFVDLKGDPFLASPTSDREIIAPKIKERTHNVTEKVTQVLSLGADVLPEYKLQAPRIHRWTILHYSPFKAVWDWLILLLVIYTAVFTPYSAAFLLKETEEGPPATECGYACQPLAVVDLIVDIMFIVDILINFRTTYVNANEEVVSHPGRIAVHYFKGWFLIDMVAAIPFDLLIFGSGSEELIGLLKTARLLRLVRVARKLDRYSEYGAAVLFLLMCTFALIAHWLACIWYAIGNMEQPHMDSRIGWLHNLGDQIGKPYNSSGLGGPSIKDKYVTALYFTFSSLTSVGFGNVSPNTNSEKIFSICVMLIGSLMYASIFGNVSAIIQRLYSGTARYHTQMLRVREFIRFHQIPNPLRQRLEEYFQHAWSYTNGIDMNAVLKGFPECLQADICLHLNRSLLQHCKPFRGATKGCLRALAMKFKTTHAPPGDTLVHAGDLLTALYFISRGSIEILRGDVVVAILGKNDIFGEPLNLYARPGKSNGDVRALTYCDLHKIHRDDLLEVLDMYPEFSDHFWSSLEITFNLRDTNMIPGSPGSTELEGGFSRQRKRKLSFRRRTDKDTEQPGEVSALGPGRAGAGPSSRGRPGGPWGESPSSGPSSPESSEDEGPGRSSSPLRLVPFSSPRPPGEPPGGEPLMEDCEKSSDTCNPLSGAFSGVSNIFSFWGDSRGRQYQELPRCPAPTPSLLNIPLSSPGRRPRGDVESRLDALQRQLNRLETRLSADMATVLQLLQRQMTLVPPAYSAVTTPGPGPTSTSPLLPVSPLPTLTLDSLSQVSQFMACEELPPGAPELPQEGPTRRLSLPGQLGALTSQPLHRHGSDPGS

Compound | hERG current change (%, negative = inhibition) at 1uM [%]
CCc1c(C)sc(NC(=O)C2CC2c2ccccc2)c1C(N)=O (centres unmarked) | 12.4
O=C1CCC(C(=O)N2CCN(c3ccc(F)cc3)CC2)CN1CC1CCCCC1 (centres unmarked) | -13.9
O=C(NCc1nc2ccccc2[nH]1)C1=C[C@H](c2ccc(C(F)(F)F)cc2)C[C@H](OCCCCO)O1 | 4.62
Cc1cc(C)nc(-n2cc(C(=O)c3cc(F)ccc3O)cn2)n1 | 12.8
Cc1nn(Cc2ccc([N+](=O)[O-])cc2)c(=O)n1-c1ccccc1Cl | 3.9
O=[N+]([O-])c1cccc(/C=N/n2cnnc2)c1 | 8.79
CCOc1ccc(CCNC(=O)CCNC(=O)c2ccc(Br)cc2)cc1OCC | 8.36
Cc1cc(C=O)c(C)n1-c1cc(C(=O)O)cc(C(=O)O)c1 | 11.9
CCCCc1ccc(C(=O)O)nc1 | 9.24
O=C(COc1ccc(S(=O)(=O)N2CCCC2)cc1)Nc1ccc2c(c1)OCCO2 | 12.7
COc1ccc(C(=O)NCC2OCCc3ccccc32)cc1OC (centres unmarked) | 1.03
CCCCC(=O)N/N=C/c1c(O)n(CCC2=CCCCC2)c(=O)[nH]c1=O | 11.7
CCN(CC)c1ccc(C(=O)NC(=S)N2CCN(Cc3ccc4c(c3)OCO4)CC2)cc1 | 10.1
Cc1c(C(=O)N2CCc3ccccc3C2)oc2ccc(S(=O)(=O)N3CC(C)CC(C)C3)cc12 (centres unmarked) | 0.934
COc1ccccc1CNC(=O)C1CCN(S(=O)(=O)c2cccc3cccnc23)CC1 | 0.296
COc1ccc(/C=C/C(=O)c2ccccc2O)cc1 | 5.77
Cc1ccc(C(=O)CC2(O)C(=O)N(Cc3ccc4c(c3)OCO4)c3ccccc32)cc1 (centres unmarked) | 2.41
CCCc1[nH]nc2c1C(c1ccccc1OCC)C(C#N)=C(N)O2 (centres unmarked) | 8.52
O=C(Cc1ccc(Cl)cc1)NC1CCCCCC1 | 14.5
COc1ccc(-c2sc3cc4c(cc3c2C#CC2(N)CCCCC2)OCO4)cc1 | 17.6
COc1ccc(-c2cn(CCC(=O)NCc3ccc(C)cc3)c(-c3ccncc3)n2)cc1 | -3.49
COc1cccc(C(=O)Nc2cc(C)on2)c1OC | 14.3

Compound | hERG current change (%, negative = inhibition) at 1uM [%]
Cn1c(N)c(S(=O)(=O)N2CCCC2)c(=O)n(C)c1=O | 21.3
CCC(=O)Nc1sc2c(c1C#N)CCC2 | 9.7
COc1ccc(/C=C(/NC(=O)c2cccc([N+](=O)[O-])c2)C(=O)O)cc1 | 9.26
COCc1cc(CN2CCN(CCCc3ccccc3)C(CCO)C2)ccc1OC (centres unmarked) | -18.2
Cc1cccc(Oc2ccc(NC(=O)C3=CC=CN4CCS(=O)(=O)N=C34)cc2)c1 | 9.88
Cn1c(=O)c([N+](=O)[O-])c(NCc2ccccc2)c2ccccc21 | 4.1
Cc1sc(NC(=S)NC(=O)c2cccs2)nc1-c1ccc(C(C)C)cc1 | 10.4
Cn1c(SCc2cccc(F)c2)nnc1-c1ccccn1 | 10.5
Cc1ccc(CSCc2ccc(C(=O)NCC3CCCO3)o2)cc1 (centres unmarked) | -2.71
O=S(=O)(c1ccc(N2CCCC2)nc1)N1CCCC1 | 13
COc1ccc(OCC(=O)N2CCN(C(=O)c3cccc4ccccc34)CC2)cc1 | 9.19
CS(=O)(=O)N(CC(=O)NCC1CCCO1)c1cc(Cl)cc(Cl)c1 (centres unmarked) | 3.81
Cn1ncc(N=Cc2c(O)ccc3ccccc23)c1C(=O)Nc1cccc(Cl)c1 | 9.29
CCCC(=O)Nc1nnc(SCC(=O)N2CCN(c3ccccc3)CC2)s1 | 16.3
C/C=C\C(=O)Nc1cccc(C2=NOC3(C2)C[C@H](C(N)=O)N(C(=O)[C@H]2CCC(=O)N2)C3)c1 (some centres unmarked) | 7.03
COc1ccccc1C(=O)Oc1ccc(N2C(=O)CCC2=O)cc1 | 4.34
Cc1c(OCC(=O)N(C)C)ccc2c3c(c(=O)oc12)CCCCC3 | -0.741
CC1CC(OCC(O)CN2CCCCC2C)CC(C)(C)C1.Cl (centres unmarked) | 0.063
CCOc1ccc(S(=O)(=O)N2CCCC2)cc1 | -1.29
O=C(NNC(=O)C1CC=CCC1)c1cccc(Br)c1 (centres unmarked) | 6.11
NS(=O)(=O)c1cnccc1Nc1cccc(F)c1 | 11.6
CCCc1cc(C(=O)Nc2ccc(C(C)=O)cc2)no1 | 10.5
